From the supplement of paper PMC3334620 come the findings set out here.

Whole data set: some 33,000 sequences, median “E-score (-0.5 to 0.5)” near -0.021, cut for the highest 2% near 0.32. The list shows a part of the results.

For this assay, the target named is T1, Zap1 (UniProt P47043).
T1 sequence: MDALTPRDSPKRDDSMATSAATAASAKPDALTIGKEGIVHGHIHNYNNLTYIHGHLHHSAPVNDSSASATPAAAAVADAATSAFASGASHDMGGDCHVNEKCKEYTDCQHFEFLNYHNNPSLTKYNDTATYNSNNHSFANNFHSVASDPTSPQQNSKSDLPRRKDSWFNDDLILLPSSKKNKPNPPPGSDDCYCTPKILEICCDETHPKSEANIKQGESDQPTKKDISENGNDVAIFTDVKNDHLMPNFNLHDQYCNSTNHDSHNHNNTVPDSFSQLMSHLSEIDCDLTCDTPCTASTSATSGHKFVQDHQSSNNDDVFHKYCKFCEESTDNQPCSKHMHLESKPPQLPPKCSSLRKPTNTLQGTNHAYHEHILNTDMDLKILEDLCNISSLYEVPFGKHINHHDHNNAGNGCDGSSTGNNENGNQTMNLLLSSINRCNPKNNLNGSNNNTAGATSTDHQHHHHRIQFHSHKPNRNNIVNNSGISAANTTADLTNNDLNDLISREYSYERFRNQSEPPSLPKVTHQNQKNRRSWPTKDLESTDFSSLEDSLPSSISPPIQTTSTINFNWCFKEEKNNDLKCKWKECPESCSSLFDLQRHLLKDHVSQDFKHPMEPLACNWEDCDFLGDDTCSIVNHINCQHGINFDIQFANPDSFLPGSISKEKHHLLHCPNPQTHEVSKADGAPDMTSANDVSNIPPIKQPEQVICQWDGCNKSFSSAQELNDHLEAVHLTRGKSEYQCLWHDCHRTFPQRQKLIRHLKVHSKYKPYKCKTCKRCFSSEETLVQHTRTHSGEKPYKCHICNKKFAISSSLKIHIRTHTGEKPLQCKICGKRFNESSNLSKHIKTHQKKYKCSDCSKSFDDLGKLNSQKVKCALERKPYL
Kind of assay: PBM E-score (8-mer binding enrichment) (E-score (-0.5 to 0.5)); higher = stronger / more preferred TF binding; most listed sequences are background and not binding sites. As to conditions: protein concentration: 200 nM; construct: GST-full length. In outline: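 For each ungapped eight-base word taken together with its reverse complement, the Universal PBM Analysis Suite assigned an E-score. Binding data came from GST-tagged yeast transcription factors, applied at about 100-200 nM, on universal all-10-mer Agilent arrays made double-stranded by primer extension. Fluorescent anti-GST marked bound protein, and scans were normalised with masliner.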
CCTGTTGA: the “PBM E-score” value was -0.0239.
As for CGAACTGA, the “PBM E-score” value was -0.13.
As for CGCCACTA, the figure is -0.111; as for CGGAGACG, -0.0214.
The figure for TCCACAGA is -0.118; for GAACTCCA it is -0.139; for CGCCTAAG it is -0.148.
ATCGTGCG: the “PBM E-score” value amounted to 0.158.
As to CCAAGTCG, the “PBM E-score” value is -0.0298.
The figure for GCAGATAA is 0.0842; for AATTATGA it is 0.22.
For the sequence AGCTTACG, the “PBM E-score” value was determined as 0.0267.
As for CCCACCTC, the figure is 0.118; as for GAGACAGC, -0.0479.
AATGCTGA: the “PBM E-score” value was -0.252.
The figure for GCCGCTGA is 0.0337; for GACCCTCA it is 0.189.
The figure for GTATAAGA is 0.0698; for CGAAGTCC it is -0.0816; for ATATACGC it is -0.144.
For the sequence TGCCCGCA, the “PBM E-score” value was 0.118.
As to TACTGCTA, the “PBM E-score” value was -0.132.
As for AAACACAT, the figure is 0.0777; as for ATCTGCTC, -0.21; as for AGGGCCCT, 0.105.
As for AAATGACT, the figure is -0.262; as for GCAGGTTA, 0.335.
The figure for ATCAGACG is -0.15.
As to ACTGCGGG, the “PBM E-score” value was -0.0481.
Take AGAATAGC: the “PBM E-score” value is 0.0192.
Turning to TGGAGCAA, the “PBM E-score” value was -0.025.
The figure for ATCCTCGG is -0.175; for AGTCGTAC it is -0.128; for CCCAATAA it is 0.144.
The figure for GCGTTGAC is -0.0667; for ACGAGGGG it is -0.242.
As for AGCCATTG, the figure is 0.0551; as for AAAGTCAT, 0.0605; as for AATGTGAC, 0.0388.
Regarding GAGCGGAA, the “PBM E-score” value was -0.162.
For the sequence AGATCCAC, the “PBM E-score” value is -0.156.
The figure for AGGACTAA is -0.0464.
For CACGAGGG, the “PBM E-score” value is 0.179.
As for ACAGGTAG, the figure is 0.13.
The figure for AGCAAGGA is -0.251; for AAACGCGC it is -0.156; for CGTGTGCA it is -0.25.
The figure for CAAGTGGG is -0.0175.
In the case of CACCCGTC, the “PBM E-score” value was determined as 0.0477.
For the sequence CAACGGCC, the “PBM E-score” value was -0.152.
As for AAGTGTAA, the “PBM E-score” value was -0.0441.
The figure for ACTCACTG is 0.211.
As for AACAACAA, the figure is 0.181; as for TCTCGTCA, -0.0679; as for ATCTATGC, -0.159.
As to CCGACTAA, the “PBM E-score” value was -0.0761.
As for GATCTCAC, the figure is -0.0823.
Regarding AAGATCAA, the “PBM E-score” value came out at 0.152.
As for GACACTAA, the figure is 0.0353.
As for AATAGCCA, the figure is 0.0218; as for AATTAATC, 0.0999; as for GTTGCAAA, 0.154.
For CTCCGCGC, the “PBM E-score” value was -0.229.
With AGGGTCTC, the “PBM E-score” value was found to be 0.218.
As for CTGCATGC, the figure is 0.0474.
As for AGTGCCTC, the “PBM E-score” value was -0.116.
On to CGCGATAG, for which the “PBM E-score” value is -0.0835.
Regarding GAGAACTC, the “PBM E-score” value is -0.146.
The figure for AAACGCAC is -0.00126.
Take ATCGTACG: the “PBM E-score” value was -0.102.
Regarding AACAGCCC, the “PBM E-score” value was found to be 0.0107.
The figure for CCCAGGTA is 0.0671; for CAATGGGC it is -0.167; for CCCCTCGA it is 0.169.
As for GCTTATAC, the figure is -0.144; as for TCTGGAAA, 0.045.
Consider AGAGAGTA, for which the “PBM E-score” value was -0.133.
As for GAGGCAAC, the figure is -0.184.
The figure for AAGGGATG is -0.203.
The figure for TCCACCGA is -0.115; for CGCTGCTA it is -0.17; for GTTGGTAA it is 0.184.
With ACGTCCAA, the “PBM E-score” value was -0.0463.
The figure for CGTGGAGA is -0.239.
On to ACGATTCG, for which the “PBM E-score” value was -0.103.
The figure for GGCTTAAC is -0.0011.
